Experimental data: PubChem BioAssay AID1508624 (National Center for Advancing Translational Sciences (NCATS), 2021)
Out of some 48,000 compounds screened, about 120 (0.25%) were called active. Another 4% or so got no clear call; they are omitted. Calls come from the whole dose curve; as a rule, active = well fitted activation curve with a large enough effect; inconclusive = small, poorly fitted or top-dose-only effect, or another doubt; inactive = no such curve, though single readings can be large or run the other way. The list shows a part of the results.

Experiment: Primary qHTS for Identification of Small Molecule Activators of Huntingtin-Antisense Promoter Activity; note: nearly all actives have a fitted effect of over 55% in size
Details: HEK293 HTT-AS promoter firefly luciferase reporter, 24 h; series mostly up to 57.5 µM; activity change, positive = activation: at the top concentration
Summary of the method: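 HEK293 cells carrying firefly luciferase reporters were seeded at 2,500 per well in Opti-MEM and cultured for 24 h. They were then treated with compounds at up to 57.5 uM final for 24 h at 37 degrees C before Dual-Glo luminescence readout.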

Activity change, positive = activation, inactive:
O=C(NCCN1CCN(c2cccc(Cl)c2)CC1)Nc1ccccc1 -23.1%
CCOC(=O)C1CCN(c2ncnc3c2nc2n3CCCCC2)CC1 -4.27%
Cc1cccc(C(=O)NCC(c2ccco2)S(=O)(=O)c2cccs2)c1 (configuration not stated) 12.5%
Cc1cccc(NC(=O)c2ccc(-c3ccccc3)s2)c1 25.4%
CCc1ccc(NC(=O)c2cnn(-c3ccccc3)c2-n2cccc2)cc1 -15.1%
CCc1cnc2c(c1SCC(=O)NCc1ccccc1Cl)c(=O)n(C)c(=O)n2C -6.08%
CCC(Oc1ccccc1)C(=O)Nc1nnc(S(=O)(=O)N(CC)CC)s1 (configuration not stated) -25.2%
CCC(C)c1ccc2oc(-c3ccc(NC(=O)c4cc5ccccc5o4)cc3)nc2c1 (configuration not stated) -25.2%
CCCC(=O)Nc1nnc(S(=O)(=O)N(C)Cc2ccc(Cl)cc2)s1 -7.01%
CC(C)c1ccc(S(=O)(=O)c2nnn3c2nc(N2CCCC2)c2sccc23)cc1 -3.12%
Cc1cccc(Cn2c(=O)n3nc(-c4ccccc4)nc3c3ccccc32)c1 -30.4%
Cn1c(=O)[nH]c2cc(-c3noc(-c4ccc(Br)cc4)n3)ccc21 -10.1%
Cc1cccc(-c2nn3c(=O)cc(CN4CCN(C(=O)/C=C/c5ccccc5)CC4)nc3s2)c1 -13.2%
Cc1cnc(Nc2cccc(CN3CCOCC3)c2)nc1Nc1cccc(S(=O)(=O)NC(C)(C)C)c1 -27.6%
COc1cc2c(C(=O)Nc3cc(OC)c(OC)c(OC)c3)cn(C)c(=O)c2cc1OC -9.24%
CC(C)(C)c1ccc(/C=C/C(=O)Nc2ccc(S(N)(=O)=O)cc2)cc1 -40.6%
CCN(CC)S(=O)(=O)c1ccc2c(c1)N(CC(=O)Nc1ccccc1F)C(=O)C1CCCN21 (configuration not stated) -6.92%
CCCNC(=O)Cn1c(=O)n(CC2CCC(C(=O)NC)CC2)c(=O)c2sccc21 (configuration not stated) -9.68%
Cc1ccc(NC(=O)/C(C#N)=C/c2ccc(-c3ccc(Cl)c(C(=O)O)c3)o2)cc1C 23.5%
COc1ccc(Cn2c(C(=O)O)c(CNCCc3ccco3)c3ccc(OC)cc32)cc1 -17.2%
O=C1CS(=O)(=O)C2(C(=O)N(Cc3ccccc3Cl)c3ccccc32)N1c1ccc(F)cc1 (configuration not stated) -28.4%
CCOc1cccc(NC(=O)C2CC(=O)N(CC)C(=Nc3ccc(F)cc3)S2)c1 (configuration not stated) -25.7%
COC(=O)c1c(-c2ccc(Cl)cc2)noc1N1CCN(c2cc(C)ccc2C)CC1 -8.79%
CCOc1ccc(CCNC(=O)c2cc3cccc4c3n2CCS4)cc1 -8.39%
COc1cccc(NC(=O)C2CCCN(S(=O)(=O)c3cn(C(C)C)cn3)C2)c1 (configuration not stated) -8.56%
COc1ccc(N2CCN(c3ncnc4c3cnn4C)CC2)cc1 -25.3%
NCCNCCNCCNCCN -3.94% [at 11.5 µM, percent change from vehicle, -100% = no light]
